# ChEMBL document CHEMBL4888484, “Replenishing the malaria drug discovery pipeline: Screening and hit evaluation of the MMV Hit Generation Library 1 (HGL1) against asexual blood stage Plasmodium falciparum ,using a nano luciferase reporter read-out” (2022)
# Out of some 150,000 compounds screened, about 540 (0.36%) showed an effect of 50% or more. The list shows a part of the results.
# System: Plasmodium falciparum
# Assay: Primary screen in NF54 nanoGlo assay, in single point, at 2uM, 72h; a lower Z score goes with more inhibition
# Type: functional, Erythrocyte
# Settings: timepoint 72 hour
SMILES,% Inhibition [%],Z score
O=C(Nc1nc2ccccc2[nH]1)c1ccncc1,1,-0.23
O=C1C[C@H](COC(=O)c2cc(Cl)cc(C(F)(F)F)c2)CN1,-2,0.34
COC(C)CS(=O)(=O)N(C)C(C)Cc1ccsc1 (configuration not stated),0,0.06
Cc1ccc2oc(-c3ccc(NC(=O)CCCc4nc(-c5ccccc5)no4)cc3)nc2c1,-37,3.23
Cc1nnc([C@@H]2CC3(CCN(C(=O)C(C)C)CC3)CN2C(=O)c2ccccc2)o1,-2,0.28
CC(C)CNC(=O)COc1ccccc1,-4,0.45
CC(CNC(=O)C1COCCN1CC1CCC1)c1nncn1C (configuration not stated),0,0.02
Cn1ccnc1C1CC(Nc2nc(C3CCCC3)ns2)CCO1 (configuration not stated),-9,0.91
COC(=O)C[C@H](C)NC(=O)CCNc1cc(C)cc(C)c1,3,-0.34
CCOc1ccc(C(CNS(=O)(=O)N2CC(C)OC(C)C2)c2c[nH]c3ccccc23)cc1OC (configuration not stated),-14,1.83
Cc1ccncc1CN(C)S(=O)(=O)C1CCC(C(F)(F)F)CC1 (configuration not stated),10,-1.34
O=S(=O)(NCc1cscn1)N1CCCC1,-4,0.81
CCn1nc([C@@H]2CCCCN2C(=O)c2ncccc2C)c2c1CCOC2,-4,0.38
CN(c1cccc2cccnc12)S(=O)(=O)c1cccc(C(=O)O)c1,-7,0.82
Cc1cc(C(=O)Nc2nnc(-c3cc(C)oc3C)o2)no1,-8,1.22
COc1ccc(C(C)N[C@@H]2C=C[C@H](CO)C2)c2ccccc12 (some centres not stated),-11,1.19
CC[C@H](NC(=O)N(Cc1ccccc1F)C1CCC1)c1nccs1,16,-1.57
O=C(c1ccc2nnnn2c1)N1CC=C(c2ccccc2)CC1,-16,1.83
OCCCN(CCO)c1nc(C2CC2)no1,-14,1.45

SMILES,% Inhibition [%],Z score
CC(C)(C)c1cc(C(=O)N2CCC(CN3CCCCC3)CC2)[nH]c(=O)n1,-6,1.02
O=C(c1cncn1-c1ccc(-c2ccc(F)c(F)c2)cc1)N1CCC(CCc2ccc(F)cc2)CC1,-11,1.77
COc1cc(CN2CC[C@H](N3CCOCC3)[C@H](CCCO)C2)ccc1F,4,-0.65
N#Cc1ccccc1CN1C[C@@H](CN2CCCCC2)[C@@H](CO)C1,3,-0.38
CCn1nc(C)cc1C(=O)OCCC(=O)NC,-4,0.52
Nc1c2c(-c3ccccc3F)nc(N3CCN(c4ccccc4)CC3)nc2nn1-c1ccc(Cl)c(Cl)c1,-8,0.96
COc1ccc2c(c1)CCCN(C(=O)CC1(O)CCCC1)C2,-6,0.9
CCn1cc(NC(=O)Cn2ncc(N(C)Cc3ccccc3)cc2=O)nn1,-15,1.43
Cn1cncc1CC(=O)N1C[C@H](C(=O)O)[C@@H](c2ccc(F)cc2F)C1,-4,0.56
O=C1C[C@H](C(=O)Nc2cccc(-c3ccccc3)c2)CN1,4,-0.42
Cc1ccc(NC(=O)N2CCCCC3CCCCC32)cc1 (configuration not stated),-1,0.19
O[C@H]1C[C@H](C(Nc2ccc(C(F)(F)F)cn2)c2ccccn2)C1 (some centres not stated),-10,1.13
CCCn1ncc(C(=O)N2CC[C@@]3(CCCN(Cc4cccc(C)c4)C3)C2)c1C,-6,0.82
CC1OC23CCCCC2C2(C#N)C(=N)N=C(O3)C12C#N (configuration not stated),-5,0.67
CC1CN(CCCOC2CCCCO2)CCS(=O)(=O)C1 (configuration not stated),-7,1.16
CC(C)N(C(=O)CCc1ccc2[nH]ccc2c1)C1CCOCC1,-9,1.19
O=C1OC(C(=O)N2CCCC2c2ccncc2)Cc2ccccc21 (configuration not stated),-1,0.1
Nc1ccc(-c2noc(C(F)(F)F)n2)cn1,11,-2
CC(C)(C)C(=O)NCCn1cccnc1=O,9,-1.12

SMILES,% Inhibition [%],Z score
O=S1(=O)CC[C@H](CCc2cccc3cc[nH]c23)C1,6,-0.73
CCc1cccc(NC(=O)Cn2c3ccccc3n3c(=O)cc(-c4ccc(F)cc4)nc23)c1,-4,0.51
Cc1nc2n(CCN3CCOCC3)c3ccccc3n2n1,32,-3.68
O=C(Nc1c2c(nc3ccccc13)CCCC2)c1ccccc1Cl,9,-1.25
CC[C@H](NC(=O)Nc1ccc(N(C)C)cc1C)c1nc(-c2ccccc2)c[nH]1,-10,1.65
CC(=O)Nc1nc2ccc(NC(=O)c3ccnn3C)cc2s1,-6,0.59
CNS(=O)(=O)C1CCN(CC(=O)NC2CCCC(C)C2C)CC1 (configuration not stated),9,-1.47
O=C(Cn1cnc2ccccc21)N1CCC(N2CCC[C@@H]2COCc2ccccc2)CC1,-12,2.19
c1cc(-c2cnc3cncn3c2)ccc1OC[C@H]1CCCCO1,-11,1.39
COC1CC(Nc2cccnc2C#N)C1(C)C (configuration not stated),-12,1.3
COc1ncccc1-c1ccc(NC2CCCC2)nn1,-14,2.22
O=C(Nc1ccc2c(c1)CCC2)c1cccc(S(=O)(=O)N2CCOCC2)c1,6,-1.01
Cc1cc(C(=O)NC[C@@H](c2ccc(F)cc2)N2CCCC2)cnc1C,-7,1.09
Cc1nc(O)c(C(=O)NCCc2nncn2C)cc1Br,-10,1.17
COc1ccc(C(=O)Nc2cccnc2N(C)C)cc1-c1ccccn1,-12,2.28
O=C(NCCNc1ncccn1)c1ccoc1,-3,0.39
Cc1cc(C(=O)NS(=O)(=O)C2CCCOC2)nn1C(C)C1CC1 (configuration not stated),-11,1.91
Cc1nnc(NC(=O)CN2CCc3nc(NC(=O)c4ccoc4)sc3C2)s1,-8,1.62
